Test results published in PubChem BioAssay AID1346428 (National Center for Advancing Translational Sciences (NCATS), 2018).
Several values for one entry are separate records, joined by “and”; a condition that tells them apart may be missing. Identical values can stand only once. In all, about 48,000 compounds went through this assay and about 1,200 (2.5%) were called active. Not shown: some 2% with an inconclusive outcome.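 The calls were made as follows: active = activation of at least 60% and not above a set upper limit (about 1 call in 100 departs from these limits); inconclusive = activation of 40% to 60%, or above that upper limit; inactive = activation under 40%.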 The list shows a part of the results.

target: Probable G-protein coupled receptor 32 (Homo sapiens) (UniProt O75388); experiment: qHTS for Agonists of Human Resolvin D1 Receptor DRV1; conditions: CHO-K1 GPR32 beta-arrestin PathHunter luminescence, 90 min; at 76.9 µM; stronger effect = higher value; zero percent set by DMSO-only wells; also: 0% is about no effect
Sequence of UniProt O75388 (O75388 whole entry, looked up): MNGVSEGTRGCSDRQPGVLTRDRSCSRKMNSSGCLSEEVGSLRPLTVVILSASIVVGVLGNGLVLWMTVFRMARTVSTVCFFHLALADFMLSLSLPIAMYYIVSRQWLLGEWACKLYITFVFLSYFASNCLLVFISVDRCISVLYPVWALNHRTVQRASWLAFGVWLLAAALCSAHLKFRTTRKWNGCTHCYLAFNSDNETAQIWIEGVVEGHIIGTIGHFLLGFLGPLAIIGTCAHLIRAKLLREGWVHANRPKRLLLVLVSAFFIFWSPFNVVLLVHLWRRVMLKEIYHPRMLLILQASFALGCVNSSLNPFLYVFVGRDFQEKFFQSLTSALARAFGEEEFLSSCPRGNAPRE
How it was run: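 Engineered CHO-K1 line co-expressing GPR32-ProLink and EA-beta-arrestin. Compound treatment lasted 90 min at 37 °C. Luminescence was recorded after 1 h with substrate at ambient temperature, relative to DMSO basal wells.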

activation, active:
COC(=O)c1ccc2c(c1)N(CC(=O)Nc1cccc(C(F)(F)F)c1)C(=O)c1ccccc1S2 107%
Cc1ccc(NC(=O)c2sc3nc(-c4ccc(F)cc4)ccc3c2N)cc1F 85.8%

activation, inactive:
CCN(C(=O)CCNC(=O)Cn1cnc2ccccc2c1=O)c1cccc(Cl)c1 25.1%
S=C(Nc1ccccc1)Nc1nccs1 -57.5%
CCOc1ccc(C(=O)Nc2ccc(C(=O)OCc3cc(=O)n4ccsc4n3)cc2)cc1 5.33%
CCOC(=O)c1ccc(NC(=O)c2csc3c2CCCC3)cc1 -1.17%
O=C(Nc1cccc2cccnc12)c1cccc2ccccc12 -2.88%
COC(=O)c1ccc(Cl)cc1NC(=O)NCc1c(-n2cccc2)sc2c1CCCC2 -10.8%
Cc1ccc(CNC(=O)Cn2ncc3c([nH]c4ccc(C)cc43)c2=O)cc1 -7.42%
COc1cccc(N2CCN(C(=O)c3cc4c(=O)n(Cc5cccs5)ccc4nc3C)CC2)c1 -17.4%
COc1ccccc1NC(=O)CN1C(=O)CC(c2ccc(C)c(C)c2)=Nc2ccccc21 -7.19%
Cc1cccc(NC(=O)Cn2cnc(S(=O)(=O)N3CCCC3)c2)c1C -10.5%
COc1ccc(CCNC(=O)c2ccc(-n3c(C)cc4c3CCCC4)cc2)cc1OC -2.88%
CCCc1cc(=O)[nH]c(SCc2nc(-c3ccc(C)cc3)no2)n1 -5.52%
COc1ccccc1CCNC(=O)Cc1c(C)c2cc3c(C(C)(C)C)coc3c(C)c2oc1=O -9.34%
COc1ccc(N2CCN(S(=O)(=O)CCNC(=O)COc3cccc(OC)c3)CC2)cc1 -15.3%
CCCSc1ncc(Cl)c(C(=O)Nc2c(C(=O)Nc3ccccc3)oc3ccccc23)n1 -0.0621%
CC(C)Oc1ccc(CNC(=O)Nc2ccc3c(c2)N(C)C(=O)c2ccccc2S3)cc1 -15.1%
Cc1cccc(Cn2c(SCc3ccc(C(=O)N4CCC(C)CC4)cc3)nc3ccncc32)c1 -11.3%
Cc1ccc2c(c1)CC(C)N2S(=O)(=O)c1nnc(NC(=O)c2ccccc2F)s1 (stereo not drawn) -6.65%
CC(C)c1ccccc1NC(=O)CN(c1ccccc1)S(=O)(=O)N(C)C -6.18%
Cc1ccc(NC(=O)CCS(=O)(=O)c2ccc(Br)cc2)c(C)c1 -10.3%
CCOc1ccc(CNC(=O)c2[nH]c3ccccc3c2Sc2ccc(C)cc2)cc1 -12.4%
O=C(NCCCN1CCN(c2ccc(F)cc2)CC1)c1sc2ncccc2c1-n1cccc1 14.3%
O=C(Cn1ccn(-c2cccc(Cl)c2)c(=O)c1=O)c1ccc(F)cc1 -23.1%
Cc1ccc2c(c1)C(=O)C(=O)N2Cc1ccc(OC(C)C)cc1 28.6%
COc1ccc(OC)c(S(=O)(=O)N2Cc3ccccc3CC2C(=O)Nc2ccc(Cl)cc2)c1 (stereo not drawn) -20.2%
CSc1ccc(C(=O)c2[nH]c(=O)[nH]c2C)cc1 17.9% and -0.502%
CCOC(=O)c1cc(-c2ccccc2)n(CCC(=O)Nc2ccc(C)cc2Cl)c1C -14.4%
Cc1cc(C)cc(NC(=O)CCS(=O)(=O)c2ccc3nc(C)sc3c2)c1 -7.16%
O=C1C(c2ccc(F)cc2)N(Cc2ccccc2Cl)C(=O)CN1C1CCCCC1 (stereo not drawn) 3.84%
Cc1ccc(C(=O)N2CCC(N3CCN(Cc4ccc(F)cc4)C(=O)C3=O)CC2)cc1 -9.96%
Cc1ccc(-n2nc(CO)c(C(=O)NCCCCc3ccccc3)n2)cc1 -11.4%
CCOc1ccc(-c2nn(-c3ccccc3)cc2C2NC(=O)NC(C)=C2C(=O)OC(C)C)cc1C (stereo not drawn) 14.7%
COc1ccc(CCNC(=O)CCCCn2c(=O)c3ccccc3n(Cc3ccc(Cl)cc3)c2=O)cc1OC -3.68%
COc1cccc(CNC(=O)c2oc3ccc4c(c3c2C)C(=O)CC(C)(C)O4)c1OC -24.3%
CCN(CC)CCn1c2c(c(SCC(=O)Nc3cccc(C(F)(F)F)c3)nc1=O)CCC2 -8.26%
CCOc1ccc(-c2cn3c(n2)sc2cc(C(=O)NCCCN(CC)CC)ccc23)cc1 -9.48%
Cc1cccc(CNC(=O)Cc2ccc(NC(=O)N3CCCCc4ccccc43)cc2)c1 0.356%
CCOC(=O)c1[nH]c(C)c(CCC(=O)NC(C)c2ccccc2)c1C (stereo not drawn) -14.9%
O=C(Nc1cc2ccc(O)cc2oc1=O)c1ccc(F)cc1 5.26%
COc1ccc(CNC(=O)c2cc3c(=O)n4cccc(C)c4nc3s2)cc1 -0.319%
CCOC(=O)c1ccc(NC(=O)C(C)N(c2ccc(OCC)cc2)S(C)(=O)=O)cc1 (stereo not drawn) 19.2%
Cc1c(C(=O)Nc2ccc(F)c(F)c2)oc2ccc(S(=O)(=O)N(C)C3CCCCC3)cc12 -2.44%
Cc1ccc(N(C)C(=O)Cn2cc(S(=O)(=O)N3CCCC3)c(S(=O)(=O)N3CCCC3)c2)cc1 -0.743%
O=C(Nc1ccc(F)cc1)C1CCCN(c2ncnc3c2nc2n3CCCCC2)C1 (stereo not drawn) -6.31%
COc1cccc(-c2nc(CS(=O)(=O)CC(=O)NCCc3ccc(OC)c(OC)c3)c(C)o2)c1 -11.2%
C=Cc1ccc(CSc2nnc(C)n3c2cc2occc23)cc1 22.1%
COc1ccc(NC(=O)c2oc3c(c2C)-c2nn(Cc4ccccc4Cl)cc2CC3)cc1OC -4.81%
Cc1ccc(-n2c(=O)c3c(cnn3C)n(CC(=O)Nc3c(C)cccc3C)c2=O)cc1 -26.4%
Cn1c(=O)c2c(n3ncnc13)NC(=O)CC2c1cccc(F)c1 (stereo not drawn) -19.5%
COc1ccc(NS(=O)(=O)c2ccc3c(c2)CC(C)N3C(C)=O)c(OC)c1 (stereo not drawn) 21.4%
CCOC(=O)C1=C(CN2CCN(c3cccc(OC)c3)CC2)NC(=O)NC1c1ccc(OC)cc1 (stereo not drawn) -18.2%
COc1ccc(CNC(=O)C2CCN(c3nnc(-n4cccc4CNc4ccc(C)cc4)s3)CC2)c(OC)c1 -30.2%
Cc1ccccc1-n1c(=O)c2c3c(sc2n2cnnc12)CCCC3 13.4%
Cc1ccc(S(=O)(=O)c2nc(-c3cccc(C)c3)oc2N2CCCCC2)cc1 -33.3%
O=S(=O)(c1ccc(F)cc1)N1CCC(n2c(C(F)(F)F)nc3cccnc32)CC1 -8.59%
O=S(=O)(Nc1cccc(-c2ccc(N3CCCC3)nn2)c1)c1ccc(F)cc1F -18.8%
COc1ccc(N2CCN(C(=O)CN(C)S(=O)(=O)c3cccs3)CC2)cc1 15.5%
COc1ccc(NC(=O)CSc2c3c(nc4ccccc24)CCC3)c(OC)c1 -11.5%
CCN(CC)C(=O)Cn1c(=O)cc(C)c2c(C)nn(C)c21 6.06%
CCOC(=O)c1ccccc1NC(=O)c1sc2ccccc2c1Cl 3.09%
COc1ccc(-c2cn3nc(N4CCCC(C(=O)NCc5ccccc5C)C4)sc3n2)cc1 (stereo not drawn) -26.2%
COc1cccc(Nc2sc(C(=O)c3ccc(F)cc3)c(N)c2C(=O)NCc2ccc(C)cc2)c1 -30.4%
COc1ccc(Cn2ccnc2SCC(=O)Nc2cc(C(F)(F)F)ccc2Cl)cc1 -27.5%
COc1cc(CNc2ccc3c(c2)ncn3C(C)C)cc(OC)c1OC -19.8%
O=C(CN(CCc1ccccc1)S(=O)(=O)c1ccccc1)NCc1ccc(Cl)cc1 -10.6%
COc1cccc(NC(=O)CSCn2nnc3c(=O)[nH]c(Cc4ccc(F)cc4)nc32)c1 5.2%
O=C(Nc1ccccc1Cl)C1CCN(c2nc3ccccc3[nH]2)CC1 -15.9%
Cc1ccc(Cl)cc1N1CCN(C(=O)c2cc(S(=O)(=O)N3CCCCCC3)cn2C)CC1 -1.2%
Cc1cc(Cl)ccc1Nc1ncnc2onc(C)c12 3.65%
O=C(CSc1nc2c([nH]c3ccccc32)c(=O)n1-c1ccccc1F)Nc1ccccc1C(F)(F)F -55.2%
COc1ccc(NC(=O)C2CCCN(S(=O)(=O)c3ccc4c(c3)CCCN4C(C)=O)C2)cc1 (stereo not drawn) -6.14%
Cc1ccc(-c2cc3c(n2-c2ccccc2F)CC(C)(C)CC3=O)cc1 -3.36%
O=C1CC(c2nnc(Cc3ccccc3Cl)o2)CN1c1ccccc1 (stereo not drawn) -13.7%
O=C(CC1C(=O)N(c2ccccc2)C(=O)N1Cc1ccc2c(c1)OCO2)Nc1ccccc1 (stereo not drawn) 7.9%
Cc1c(C)n(Cc2ccc(F)cc2)c2ccc(C(=O)Nc3ccc(Cl)cc3)cc12 4.7%
CCOC(=O)c1ccc(CN(Cc2ccccc2C)S(=O)(=O)c2ccc(F)c(C(=O)Nc3cccc(OC)c3)c2)cc1 -24.1%
COc1ccc(NC(=O)c2oc3ccccc3c2NC(=O)Cc2cccs2)cc1 -9.37%
COc1ccc(NC(=O)CN2C(=O)COc3ccc(S(=O)(=O)N4CCCCC4)cc32)cc1Cl -5.25%
O=C(CN1C(=O)CSc2ccc(S(=O)(=O)N3CCCC3)cc21)NCc1ccc(Cl)cc1 -20.4%
COc1ccc(C)cc1NC(=O)N1CCN(c2cc(-c3noc(C)n3)ccc2C)CC1 -1.49%
COc1ccccc1N1CCN(c2ccc(-c3nc(-c4ccccc4)no3)cc2[N+](=O)[O-])CC1 -24.1%
